Experimental data as given in paper PMC11840927, “Frataxin Traps Low Abundance Quaternary Structure to Stimulate Human Fe–S Cluster Biosynthesis” (Biochemistry, 2025).

What was measured:
[1] = target: T1, E. coli cysteine desulfurase IscS without a His-tag (E. coli, UniProt P0A6B7 1-404, PLP cofactor); assay: native MS; complexes formed before the exchange reaction: SDAec with ISCU2 (1:3) or ISCU2 and FXN (1:3:3), IscS with IscU (1:3), 30 min, room temperature, EMR Orbitrap; conditions: both partners purified
T1 construct: IscS, E. coli cysteine desulfurase; also called untagged IscS
T1 sequence (looked up): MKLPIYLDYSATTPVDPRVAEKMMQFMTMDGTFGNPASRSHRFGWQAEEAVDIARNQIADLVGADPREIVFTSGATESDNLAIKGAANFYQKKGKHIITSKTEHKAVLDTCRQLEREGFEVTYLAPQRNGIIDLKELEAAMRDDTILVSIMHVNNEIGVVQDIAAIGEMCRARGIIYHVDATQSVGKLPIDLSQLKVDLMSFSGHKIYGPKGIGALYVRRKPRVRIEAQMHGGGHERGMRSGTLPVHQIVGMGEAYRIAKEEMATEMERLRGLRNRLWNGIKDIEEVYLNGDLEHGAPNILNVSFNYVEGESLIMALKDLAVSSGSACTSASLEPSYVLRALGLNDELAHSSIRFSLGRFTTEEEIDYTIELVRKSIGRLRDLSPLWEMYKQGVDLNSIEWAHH

[2] = target: T2, E. coli cysteine desulfurase IscS with a His-tag (E. coli, UniProt P0A6B7 1-404, PLP cofactor); assay: as above; conditions: both partners purified
T2 construct: IscS, E. coli cysteine desulfurase; also called tagged IscS; His-tagged IscS
T2 sequence (looked up): T1 sequence (looked up)

B1: E. coli IscU (natural protein, UniProt P0ACD4 1-128, looked up)
chain: MAYSEKVIDHYENPRNVGSFDNNDENVGSGMVGAPACGDVMKLQIKVNDEGIIEDARFKTYGCGSAIASSSLVTEWVKGKSLDEAQAIKNTDIAEELELPPVKIHCSILAEDAIKAAIADYKSKREAK
notes: IscU, E. coli Fe–S cluster scaffold protein
[1]
  binding result: binds
[2]
  binding result: binds
